The other results are listed elsewhere or left out. The main result of the screen is listed elsewhere. These columns were measured beside it and carry no call.

This assay in a line: compounds boosting herpes simplex virus growth – fold increase, host cell viability (AID 1956). Also: tested in PC3 cells. The following applies: HSV replication augmentation in cells; fold increase: measured here: primary screen fold increase 10 uM, at 10 µM, stronger effect = higher value; viability: measured here: host cell viability series, at 25 µM, stronger effect = lower value.
Consider `O=C(O)C1Sc2[nH]c(=O)sc2C2c3ccc(O)cc3OC(=O)C12` (centres undefined), for which the fold increase is 1.37 and the viability came out at 96%. In the same order, the values of `Cc1cn2c(N)c(C=C3C=C(Cl)C(=O)C(Cl)=C3)c(=O)nc2s1` are 1.39 and 111%. For `CCN1CCc2c(sc(NC(=S)NC(=O)c3ccco3)c2C(N)=O)C1`, in that order: 1.86 and 90%. On to `CN(C)c1ccc(/C=C2\C(=N)N3C(=NC2=O)Sc2cc(S(C)(=O)=O)ccc23)cc1`, for which the fold increase came out at 3.42 and the viability was 96%. As for `CC(C)C1CC(C(F)(F)F)n2nc(C(=O)O)cc2N1` (centres undefined), the fold increase was determined as 1.33 and the viability came to 101%. As for `CC1CCCCN1C(=O)Cn1c(=O)n(CCC(=O)NCc2ccco2)c(=O)c2sccc21` (centres undefined), the fold increase was 1.46. Same read-out and setting: the same measure for `Cc1[nH]nc(-c2ccc(OCc3cnn(-c4ccccc4)c3)cc2O)c1Oc1ccc(Cl)cc1`: 1.16. Consider `C=CCc1ccccc1OCC(O)Cn1ccnc1C` (centres undefined), for which the fold increase was 1.59 and the viability was 90.8%. Compound `COc1ccc(S(=O)(=O)/N=C2/NC(=O)/C(=C/c3ccco3)S2)cc1` displayed a fold increase of 1.08. With `O=C1c2ccccc2-c2ncnc3c(N4CCOCC4)cc(N4CCOCC4)c1c23`, the fold increase was found to be 1.67 and the viability worked out at 84.7%. Turning to `COc1ccc2c(C)cc(SCC(=O)N3CCOCC3)nc2c1`, the fold increase was determined as 1.72 and the viability is 102%. The compound `Cc1cc(C)n2cc(CSc3nnc(SCc4cn5c(C)cc(C)nc5n4)s3)nc2n1` displayed a fold increase of 1.46. As to `NNc1nc(-c2ccccc2Cl)nc2sc3c(c12)CCCC3`, the fold increase is 1.36 and the viability turned out to be 75.3%. For `CCCCC1CCCC12NC(=O)NC2=O` (centres undefined), in that order: 1.45 and 103%. For the compound `Cc1ccc(N2NC3(CCN(C(N)=O)CC3)NC2=O)cc1`, the fold increase was 1.47 and the viability was 101%.

As to `O=C(O)CNC(=O)CCCn1nnc2ccccc2c1=O`, the fold increase was 1.36 and the viability worked out at 96.4%. For the compound `CCN(CC)c1ccc(C=C(c2nnnn2-c2ccc(C)cc2)c2nnnn2-c2ccc(C)cc2)cc1`, the fold increase was found to be 1.56 and the viability was determined as 91%. For `CCCCC(CCCC)=N/N=C/c1c(O)n(CC)c2cc(C3=NNC(=O)CC3)ccc12`, in that order: 1.36 and 92.1%.

With `O=C(c1c(Cl)cccc1Cl)N1CCN(c2ccccn2)CC1`, the fold increase was 1.37 and the viability came out at 94.8%. In the same order, the values of `COc1ccc(-c2c(C(C)=O)c(C)nc3sc4c(=N)n(N)cnc4c23)cc1` are 1.97 and 101%. In turn, `Cc1c(Cl)cccc1NC(=S)NCc1ccc(Cl)cc1` displayed a fold increase of 1.25.

Regarding `CCN1CCN(Cc2c(O)ccc3c2O/C(=C\c2ccc(C)cc2)C3=O)CC1`, the fold increase was found to be 1.48 and the viability amounted to 96.8%.

In the case of `Cc1cccc(NC(=O)C2CCCN2/C=C/C(=O)C(F)(F)F)c1C` (centres undefined), the fold increase is 1.32. With `CN1CCCN(C(=O)Cc2c(Cl)cccc2Cl)c2nc3ccccc3nc21`, the fold increase is 3.31 and the viability was 95.7%.

Consider `COC(=O)C1=C(O)C(C(=O)OC)C(c2ccc(C)cc2)C(C#N)(C#N)C1c1ccc(C)cc1` (centres undefined), for which the fold increase was 1.54 and the viability turned out to be 71.3%. In the same order, the values of `O=c1ccc2cc3c4c(c2o1)CCCN4CCC3` are 1.33 and 96.2%. With `Cc1ccc(NS(=O)(=O)c2cc([N+](=O)[O-])ccc2N/N=C/c2sc(N3CCOCC3)nc2-c2ccccc2)c(C)c1`, the fold increase stood at 1.92 and the viability came out at 22.9%.

In turn, `C(=C\c1ccco1)/c1nc2ccccc2[nH]1` gave a fold increase of 1.32. On the same count and under the same terms, the figure for `S=C(c1cn(CCOc2ccccc2)c2ccccc12)N1CCCC1` is 1.11. Take `COc1ccc(NC(=S)NCCC(c2ccccc2)c2ccccc2)c(OC)c1`: the fold increase is 1.11. With `COc1ccc(-c2cc(C(F)(F)F)c3c(n2)sc2c(O)cc(=O)[nH]c23)c(OC)c1`, the fold increase is 1.98. As for `O=C(Cn1cc2c(n1)CCCCC2)NCCCN1CCOCC1`, the fold increase is 1.33 and the viability was found to be 95.2%.

On to `CCCCOc1ncnc2c1[nH]c1ccc(C)cc12`, for which the fold increase came out at 1.32.

Turning to `O=C(O)C(Cc1ccccc1)N1C(=O)/C(=C/c2cccs2)SC1=S` (centres undefined), the fold increase was determined as 1.64 and the viability came to 86.7%. Take `CC(C)CN1C(=O)/C(=C/c2c(N3CCc4ccccc4C3)nc3ccccn3c2=O)SC1=S`: the fold increase is 5.54. Regarding `CC[N+](C)(CC)CC(O)COCC1COc2ccccc2O1` (centres undefined), the fold increase came out at 1.33 and the viability was 99.3%. In the same order, the values of `Fc1ccc(C2=CC(c3ccc(Br)o3)n3ncnc3N2)cc1` (centres undefined) are 5.9 and 94%. In the same order, the values of `COc1ccc(S(=O)(=O)C(C#N)c2nc3ccccc3nc2N2CCCCC2)cc1` (centres undefined) are 1.41 and 103%. `COC(=O)c1cc(NC(=O)c2c(Cl)nc3sccn23)cc(C(=O)OC)c1`: the fold increase stood at 1.12. As to `COc1ccc(C(c2c(O)nc(SC)n(C)c2=O)c2c(O)nc(SC)n(C)c2=O)cc1O`, the fold increase came to 1.55 and the viability came out at 90.2%. Turning to `Cc1nn(CC(=O)OC(C)C(=O)Nc2ccccc2[N+](=O)[O-])c(C)c1[N+](=O)[O-]` (centres undefined), the fold increase turned out to be 1.53 and the viability stood at 104%. The compound `O=c1cc2oc3cc(O)c(O)cc3c(-c3ccccc3O)c-2cc1O` yielded a fold increase of 1.96. `O=[N+]([O-])c1cc(-c2cnc3ccccc3n2)ccc1Oc1ccc(Cl)cc1`: the fold increase was determined as 1.39 and the viability turned out to be 94.1%. As to `COc1ccc(C)cc1NC(=O)CSc1nnc(CC(=O)Nc2ccccc2C)n1C`, the fold increase worked out at 1.33 and the viability amounted to 100%. For `CC(C)(C)OC(=O)N/N=C/c1cc(N=Nc2ccccc2)ccc1O`, in that order: 1.4 and 95.9%. With `CCOc1ccccc1/C=N/NC(=O)Cc1csc(Nc2cccc(C(F)(F)F)c2)n1`, the fold increase came out at 1.16. In the case of `CCN1CC=C2C(C#N)=C(N)C(C#N)(C#N)C(CCc3ccccc3)C2C1` (centres undefined), the fold increase came out at 2.96 and the viability was 87.9%. In turn, `O=C(N/N=C/c1sc2ccccc2c1O)c1ccccc1` showed a fold increase of 1.62. Turning to `CCOC(=O)C(NC(=O)c1ccccc1Cl)(Nc1sc2c(c1C(N)=O)CCC2)C(F)(F)F` (centres undefined), the fold increase was found to be 1.5 and the viability was found to be 103%. Turning to `COc1cc(OC)cc(C(=O)NCc2ccc3c(c2)cc(C)n3C)c1`, the fold increase worked out at 1.52 and the viability turned out to be 95.9%. In the same order, the values of `CCc1nnc(NC(=O)Cc2ccc(OC)c(OC)c2)s1` are 1.34 and 95.8%. For the compound `CN1CC=C2C(C#N)=C(N)C(C#N)(C#N)C(Cc3ccccc3)C2C1` (centres undefined), the fold increase stood at 1.32. Take `CC1(C)Cc2c(c(N3CCOCC3)nc3sc4c(NN)ncnc4c23)CS1`: the fold increase came out at 1.51 and the viability came out at 14.4%. For `CCC(C)(C)C(=O)Nc1ccc(OC)cc1[N+](=O)[O-]`, in that order: 1.42 and 97.2%. In the same order, the values of `CN1CC(=O)N(CC(=O)Nc2ccc(N(C)C)cc2)c2ccccc2C1=O` are 1.44 and 101%. On to `N#C/C(=C\c1ccc(N2CCOCC2)o1)C(=O)NC1CCCCC1`, for which the fold increase was 2.32 and the viability was 90%. For `COCCN(Cc1cc2cc3c(cc2nc1Cl)OCO3)C(=O)Nc1ccccc1OC`, in that order: 1.56 and 82.3%. For `COCCn1c(C)cc(C(=O)CSc2cc(C)c3ccc(OC)cc3n2)c1C`, in that order: 1.53 and 90.4%. `N#Cc1c(NC(=O)c2ccccc2Cl)n(Cc2ccccc2)c2nc3ccccc3nc12` registered a fold increase of 2.27.

In the case of `NC(=S)Nc1cc(Cl)cc(Cl)c1`, the fold increase came to 1.41 and the viability was 70.2%. Regarding `NS(=O)(=O)c1ccc(Nc2ccc([N+](=O)[O-])c3nonc23)cc1`, the fold increase stood at 1.45 and the viability worked out at 91.5%.

A word on the viability: it is a read-out of living cells in per cent, often relative to untreated cells.
